From the supplement of paper PMC4604168 (melanoma cell lines)
Some of the results follow. Single values are uncertain, as repeats are few or missing.

Key:
Assay in all cases: cell count relative to DMSO control; melanoma cells; higher = more viable cells
Conditions in all cases: library dose: standard library concentration; 72 h
[1] = tested on: G361
[2] = tested on: IPC-298
[3] = tested on: IST-MEL1
[4] = tested on: LB2518-MEL
[5] = tested on: LOXIMVI
[6] = tested on: MEL-HO
[7] = tested on: MZ2-MEL
[8] = tested on: MeWo
[9] = tested on: RPMI7951
[10] = tested on: RVH-421
[11] = tested on: SkMel28
[12] = tested on: SkMel2
[13] = tested on: SkMel30
[14] = tested on: SkMel5
[15] = tested on: UACC257
[16] = tested on: UACC62
[17] = tested on: WM115
[18] = tested on: WM1716
[19] = tested on: WM3526
[20] = tested on: WM1745
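Note: cells treated in 1,536-well plates, then fixed and DAPI-stained, with nuclei counted from automated high-throughput microscope images.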

Structure (SMILES) | cell count [1] [%] | cell count [2] [%] | cell count [3] [%] | cell count [4] [%] | cell count [5] [%] | cell count [6] [%] | cell count [7] [%] | cell count [8] [%] | cell count [9] [%] | cell count [10] [%] | cell count [11] [%] | cell count [12] [%] | cell count [13] [%] | cell count [14] [%] | cell count [15] [%] | cell count [16] [%] | cell count [17] [%] | cell count [18] [%] | cell count [19] [%] | cell count [20] [%]
NC(=O)c1ccc(N(C(N)=O)c2c(F)cccc2F)nc1-c1ccc(F)cc1F + C/C(O)=C(\C#N)C(=O)Nc1cc(Br)ccc1Br [LFM-A13] (first compound 2 µM, partner dose 10 µM) | 96.9 | 119 | 99.1 | 90.4 | 81.8 | 87.9 | 90.4 | 90.8 | 86.2 | 85.2 | 82.8 | 102 | 87.9 | 108 | 102 | 74.2 | 89 | 117 | 99.8 | –
NC(=O)c1ccc(N(C(N)=O)c2c(F)cccc2F)nc1-c1ccc(F)cc1F + Cc1cc(SCc2sc(-c3ccc(C(F)(F)F)c(F)c3)nc2C)ccc1OCC(=O)O [GW0742] (first compound 2 µM, partner dose 10 µM) | 90.8 | 89.5 | 89.6 | 94.3 | 107 | 92.5 | 98.4 | 93.6 | 111 | 102 | 78.7 | 78.9 | 87.2 | 104 | 96 | 80.7 | 111 | 105 | 94.3 | –
NC1(c2ccc(-c3nc4ccn5c(=O)[nH]nc5c4cc3-c3ccccc3)cc2)CCC1 + Cc1cc(SCc2sc(-c3ccc(C(F)(F)F)c(F)c3)nc2C)ccc1OCC(=O)O [GW0742] (first compound 2 µM, partner dose 10 µM) | 96.1 | 91.2 | 91.1 | 78.1 | 89.2 | 76 | 98.4 | 82 | 103 | 70.8 | 65.4 | 76.8 | 95.7 | 80.3 | 92.4 | 74.4 | 77.6 | 70.1 | 81.9 | –
Cn1cnc2c(F)c(Nc3ccc(Br)cc3Cl)c(C(=O)NOCCO)cc21 [selumetinib] + O=C(Oc1ccc([N+](=O)[O-])cc1)N1CCC(C(O)(c2ccc3c(c2)OCO3)c2ccc3c(c2)OCO3)CC1 [JZL184] (first compound 0.075 µM, partner dose 5 µM) | 59.1 | 50.2 | 78.1 | 57.1 | 107 | 75.9 | 89.4 | 71.8 | 119 | 43.4 | 59.8 | 38 | 67.1 | 106 | 99.1 | 56 | 84.8 | 107 | 62.6 | –
O=C(/C=C/c1cccnc1)NCCCCC1CCN(C(=O)c2ccccc2)CC1 + O=C(Oc1ccc([N+](=O)[O-])cc1)N1CCC(C(O)(c2ccc3c(c2)OCO3)c2ccc3c(c2)OCO3)CC1 [JZL184] (first compound 0.05 µM, partner dose 5 µM) | 3.33 | 31.6 | 66.6 | 71.8 | 49.4 | 40.2 | 30.1 | 90.6 | 105 | 36.3 | 91.7 | 31.1 | 109 | 90.6 | 92.4 | 92.6 | 69.1 | 79.4 | 87.7 | –
CNC(=O)c1cc(Oc2ccc(NC(=O)Nc3ccc(Cl)c(C(F)(F)F)c3)cc2)ccn1 [sorafenib] + C/C(O)=C(\C#N)C(=O)Nc1cc(Br)ccc1Br [LFM-A13] (first compound 2 µM, partner dose 10 µM) | 85.2 | 89.1 | 89.5 | 87 | 113 | 88.8 | 92.6 | 76.3 | 74.8 | 132 | 65.7 | 84.8 | 87.1 | 83.1 | 88.2 | 82.2 | 87.1 | 81.9 | 74.2 | –
COc1cc([C@@H]2c3cc4c(cc3[C@@H](O[C@@H]3O[C@@H]5CO[C@@H](C)O[C@H]5[C@H](O)[C@H]3O)[C@H]3COC(=O)[C@H]23)OCO4)cc(OC)c1O [etoposide] + C/C(O)=C(\C#N)C(=O)Nc1cc(Br)ccc1Br [LFM-A13] (first compound 0.1 µM, partner dose 10 µM) | 94.6 | 81.1 | 97.9 | 95.2 | 123 | 83.1 | 75.5 | 74 | 79.1 | 121 | 81.2 | 72.8 | 86.8 | 88.2 | 88.1 | 68.7 | 91.3 | 69.1 | 84.1 | –
N#CC[C@H](C1CCCC1)n1cc(-c2ncnc3[nH]ccc23)cn1 [ruxolitinib] + C/C(O)=C(\C#N)C(=O)Nc1cc(Br)ccc1Br [LFM-A13] (first compound 5 µM, partner dose 10 µM) | 64.6 | 92.4 | 90.9 | 128 | 130 | 75.2 | 64.1 | 75.1 | 63.1 | 104 | 82.6 | 99.7 | 125 | 65.7 | 83.3 | 93.6 | 105 | 72.3 | 87.1 | –
CCCCCCCCCCCCCCCCCCOP(=O)([O-])OC1CC[N+](C)(C)CC1 [Perifosine] + Cc1cc(SCc2sc(-c3ccc(C(F)(F)F)c(F)c3)nc2C)ccc1OCC(=O)O [GW0742] (first compound 2 µM, partner dose 10 µM) | 99.3 | 97.3 | 88.2 | 98.7 | 80.6 | 90.6 | 110 | 64.5 | 27.3 | 90.3 | 67.5 | 96.2 | 85.2 | 93.4 | 111 | 91.6 | 113 | 94.9 | 89.1 | –
CN(c1ncccc1CNc1nc(Nc2ccc3c(c2)CC(=O)N3)ncc1C(F)(F)F)S(C)(=O)=O + C/C(O)=C(\C#N)C(=O)Nc1cc(Br)ccc1Br [LFM-A13] (first compound 0.4 µM, partner dose 10 µM) | 76.5 | 86.3 | 82.3 | 86.8 | 60.8 | 74.2 | 83.6 | 81.8 | 54.6 | 73.5 | 65.9 | 73.1 | 103 | 54.5 | 82.3 | 76.3 | 81.4 | 83.7 | 83.5 | –
Cn1c(=O)n(-c2ccc(C(C)(C)C#N)cc2)c2c3cc(-c4cnc5ccccc5c4)ccc3ncc21 + N.N.[Cl][Pt][Cl] [cisplatin] (first compound 0.02 µM, partner dose 8 µM) | 57.1 | 88 | 75.1 | – | 40.6 | 59.1 | – | 61.4 | 71.7 | 59.5 | 58.5 | 69.8 | 67.4 | 67.6 | 81.5 | 60.7 | 62.2 | 77.8 | 71.4 | 96.9
Nc1nc(F)nc2c1ncn2[C@@H]1O[C@H](CO)[C@@H](O)[C@@H]1O [fludarabine] + Cc1cc(SCc2sc(-c3ccc(C(F)(F)F)c(F)c3)nc2C)ccc1OCC(=O)O [GW0742] (first compound 1 µM, partner dose 10 µM) | 79 | 76.9 | 56.5 | 86.2 | 115 | 72.6 | 102 | 76.7 | 72.7 | 88.5 | 5.6 | 2.07 | 22.7 | 26 | 28.1 | 83.9 | 104 | 84.9 | 25.1 | –
C[C@@H](Oc1cc(-c2cnn(C3CCNCC3)c2)cnc1N)c1c(Cl)ccc(F)c1Cl [Crizotinib] + Cc1cc(SCc2sc(-c3ccc(C(F)(F)F)c(F)c3)nc2C)ccc1OCC(=O)O [GW0742] (first compound 1 µM, partner dose 10 µM) | 92.5 | 90.8 | 88.3 | 76.8 | 86.7 | 91.1 | 92.5 | 81.6 | 73.3 | 82 | 44.9 | 81.5 | 76.2 | 69.1 | 89.1 | 67.7 | 75.4 | 80 | 68.4 | –
C[C@]1(O)C[C@@H](c2nc(-c3ccc4ccc(-c5ccccc5)nc4c3)c3c(N)nccn32)C1 + Cc1cc(SCc2sc(-c3ccc(C(F)(F)F)c(F)c3)nc2C)ccc1OCC(=O)O [GW0742] (first compound 2 µM, partner dose 10 µM) | 81 | 87 | 83.5 | 117 | 180 | 90 | 103 | 82.9 | 81.2 | 106 | 83.4 | 93.1 | 114 | 80.8 | 82.5 | 66.8 | 120 | 91.9 | 69.3 | –
O=c1[nH]nc(Sc2ncc([N+](=O)[O-])s2)n1-c1ccc2c(c1)OCCO2 + Cc1cc(SCc2sc(-c3ccc(C(F)(F)F)c(F)c3)nc2C)ccc1OCC(=O)O [GW0742] (first compound 1 µM, partner dose 10 µM) | 110 | 133 | 121 | 123 | 107 | 115 | 139 | 103 | 132 | 149 | 103 | 117 | 116 | 128 | 103 | 104 | 79.9 | 132 | 130 | –
O=c1[nH]nc(Sc2ncc([N+](=O)[O-])s2)n1-c1ccc2c(c1)OCCO2 + C[C@]12O[C@H](C[C@]1(O)CO)n1c3ccccc3c3c4c(c5c6ccccc6n2c5c31)CNC4=O [Lestaurtinib] (first compound 1 µM, partner dose 0.02 µM) | 94.9 | 83.2 | 113 | – | 96.4 | 82.7 | – | 79.8 | 134 | 96.3 | 49.9 | 107 | 72.1 | 57.4 | 102 | 79.1 | 69 | 101 | 66.3 | 102
